For 26 molecules, cytotoxicity call and growth inhibition call results are on record in the antibiotic and cytotoxicity screens of Wong et al. (2023).

One test deals with HSkMC. The test is described as follows: cytotoxicity call (relative viability < 0.9). The following applies: 10 µM.
Another test concerns HepG2. The test is described as follows: cytotoxicity call (relative viability < 0.9). As to conditions: 10 µM.
The subject of a further test is S. aureus RN4220. The test is described as follows: growth inhibition call (relative growth <= 0.2). As to conditions: 50 µM.

Molecules are shown by their SMILES. The list shows a part of the results.

Consider `C[C@H]1CN([C@@H](C)CO)C(=O)c2cc(-c3cccnc3)cnc2O[C@@H]1CN(C)C(=O)Nc1ccc2c(c1)OCO2`, for which the cytotoxicity call with HSkMC and with HepG2 was “inactive” each time. Further, the growth inhibition call in the test on S. aureus RN4220 was “inactive”.

Turning to `C[C@@H]1CN([C@@H](C)CO)C(=O)c2cccc(NC(=O)c3ccncc3)c2O[C@@H]1CN(C)Cc1ccc(C(=O)O)cc1`, the cytotoxicity call with HSkMC and in the test with HepG2 was “inactive” each time. Moreover, the growth inhibition call in the test on S. aureus RN4220 is “inactive”.

For the molecule `C[C@H](CO)N1C[C@H](C)[C@@H](CN(C)S(=O)(=O)c2ccc(C(F)(F)F)cc2)OCc2ccccc2-c2c(n(C)c3ccccc23)C1=O`, the cytotoxicity call in the test on HSkMC and in the test on HepG2 was “inactive” throughout. Further, the growth inhibition call with S. aureus RN4220 was “inactive”.

As to `COc1ccc(S(=O)(=O)N(C)C[C@H]2Oc3ccc(N(C)C)cc3CC(=O)N([C@@H](C)CO)C[C@H]2C)cc1`, the cytotoxicity call in the test with HSkMC and in the test on HepG2 was “inactive” in each case. Further, in the test with S. aureus RN4220, the growth inhibition call was “inactive”.

Turning to `COc1cccc(S(=O)(=O)N[C@@H]2CC[C@H](CC(=O)NC3CCC3)O[C@H]2CO)c1`, the cytotoxicity call in the test with HSkMC and with HepG2 was “inactive” throughout. In addition, in the test on S. aureus RN4220, the growth inhibition call is “inactive”.

For `C[C@@H]1CN([C@H](C)CO)C(=O)c2cccc(NS(=O)(=O)c3ccc(F)cc3)c2O[C@@H]1CN(C)C(=O)Nc1cccc2ccccc12`, the cytotoxicity call in the test on HSkMC and with HepG2 was “inactive” in each case. Besides, the growth inhibition call with S. aureus RN4220 is “inactive”.

As to `O=C(C[C@H]1CC[C@@H](NC(=O)Cc2ccccn2)[C@@H](CO)O1)NCCc1ccncc1`, the cytotoxicity call in the test with HSkMC and in the test with HepG2 was “inactive” throughout. Also, in the test with S. aureus RN4220, the growth inhibition call was “inactive”.

As for `NCCc1cnc[nH]1`, the cytotoxicity call with HSkMC and in the test with HepG2 was “inactive” throughout. Besides, the growth inhibition call in the test with S. aureus RN4220 is “inactive”.

`O=C(Cc1ccc(-c2ccccc2)cc1)Nc1c(C(=O)Nc2ccc3c(c2)OCCO3)oc2ccccc12`: the cytotoxicity call with HSkMC and in the test on HepG2 was “inactive” throughout. The growth inhibition call in the test with S. aureus RN4220 was “inactive”.

In the case of `Cc1noc(C)c1NC(=O)Nc1ccc2c(c1)C(=O)N([C@H](C)CO)C[C@@H](C)[C@@H](CN(C)Cc1ccccc1)OCCCC[C@H](C)O2`, the cytotoxicity call with HSkMC and in the test with HepG2 was “inactive” each time. In addition, the growth inhibition call in the test on S. aureus RN4220 is “inactive”.

Take `COC(=O)C1=C(C)NC(C)=C(C(=O)OCC(C)C)[C@@H]1c1ccccc1[N+](=O)[O-]`: the cytotoxicity call in the test on HSkMC and in the test with HepG2 was “inactive” throughout. Also, the growth inhibition call in the test with S. aureus RN4220 was “inactive”.

As for `O=C(C[C@@H]1CC[C@H](NC(=O)Cc2ccccn2)[C@H](CO)O1)NCCCN1CCOCC1`, the cytotoxicity call in the test with HSkMC and in the test with HepG2 was “inactive” throughout. The growth inhibition call in the test with S. aureus RN4220 is “inactive”.

Take `COc1ccc(CN(C)C[C@@H]2Oc3ccc(NC(=O)CCN4CCOCC4)cc3CC(=O)N([C@@H](C)CO)C[C@@H]2C)cc1`: the cytotoxicity call in the test with HSkMC and with HepG2 was “inactive” in each case. For the same molecule, in the test with S. aureus RN4220, the growth inhibition call is “inactive”.

With `C[C@@H]1CN([C@H](C)CO)S(=O)(=O)c2ccc(-c3ccc(F)cc3)cc2O[C@@H]1CN(C)S(C)(=O)=O`, the cytotoxicity call in the test on HSkMC and in the test on HepG2 was “inactive” in each case. In the test with S. aureus RN4220, the growth inhibition call is “inactive”.

Consider `C[C@@H]1CN([C@H](C)CO)C(=O)c2cc(NC(=O)CCC(F)(F)F)ccc2O[C@@H](C)CCCCO[C@@H]1CN(C)S(=O)(=O)c1ccc(F)cc1`, for which the cytotoxicity call in the test on HSkMC and in the test on HepG2 was “inactive” in each case. Moreover, the growth inhibition call with S. aureus RN4220 was “inactive”.

As for `COc1ccc(CN2C[C@@H](C)[C@H](OC)CN(C)C(=O)c3ccc(NC(=O)c4nc5ccccc5s4)cc3OC[C@H]2C)cc1`, the cytotoxicity call with HSkMC and in the test on HepG2 was “inactive” in each case. Besides, the growth inhibition call with S. aureus RN4220 is “inactive”.

As to `Cc1noc(C)c1S(=O)(=O)N(C)C[C@@H]1Oc2ccc(NC(=O)Cn3cnnn3)cc2CC(=O)N([C@@H](C)CO)C[C@H]1C`, the cytotoxicity call in the test with HSkMC and in the test on HepG2 was “inactive” throughout. Moreover, the growth inhibition call with S. aureus RN4220 was “inactive”.

For `C[C@@H]1CCCCO[C@@H](CN(C)Cc2ccc(C(=O)Nc3ccccc3N)cc2)[C@@H](C)CN([C@H](C)CO)C(=O)c2cc(NS(=O)(=O)c3cccs3)ccc2O1`, in the test on HSkMC, the cytotoxicity call was “inactive”. The cytotoxicity call in the test with HepG2 is “active”. In the test with S. aureus RN4220, the growth inhibition call is “inactive”.

For the molecule `C[C@H](CO)N1C[C@H](C)[C@H](CN(C)CC2CCOCC2)Oc2ncc(C#Cc3cccc(F)c3)cc2C1=O`, the cytotoxicity call in the test on HSkMC and with HepG2 was “inactive” in each case. Besides, the growth inhibition call with S. aureus RN4220 was “inactive”.

With `C[C@@H]1CN([C@@H](C)CO)C(=O)Cc2cc(NC(=O)CCC(F)(F)F)ccc2O[C@H]1CN(C)Cc1ccc(-c2ccccc2)cc1`, the cytotoxicity call with HSkMC is “active”. In addition, in the test with HepG2, the cytotoxicity call was “inactive”. Moreover, in the test with S. aureus RN4220, the growth inhibition call was “inactive”.

As for `Cc1noc(C)c1NC(=O)N(C)C[C@@H]1OCCCC[C@@H](C)Oc2ccc(NS(=O)(=O)c3ccc(F)cc3)cc2C(=O)N([C@@H](C)CO)C[C@H]1C`, the cytotoxicity call in the test on HSkMC and with HepG2 was “inactive” in each case. Also, the growth inhibition call with S. aureus RN4220 was “inactive”.

Turning to `C[C@H](O)C#Cc1ccc2c(c1)O[C@H](CN(C)C(=O)Nc1ccccc1)[C@H](C)CN([C@@H](C)CO)S2(=O)=O`, the cytotoxicity call with HSkMC and in the test with HepG2 was “inactive” in each case. The growth inhibition call in the test on S. aureus RN4220 is “inactive”.

On to `CN1C(=O)c2cc(NS(C)(=O)=O)ccc2OC[C@H]2O[C@H](CC(=O)N3CCOCC3)CC[C@H]21`, for which the cytotoxicity call in the test with HSkMC and in the test on HepG2 was “inactive” each time. In addition, the growth inhibition call in the test with S. aureus RN4220 is “inactive”.

As to `C[C@@H]1CCCCO[C@@H](CN(C)Cc2ccc(C(F)(F)F)cc2)[C@@H](C)CN([C@H](C)CO)C(=O)c2cc(NC(=O)c3ccncc3)ccc2O1`, the cytotoxicity call with HSkMC and in the test with HepG2 was “inactive” each time. Further, the growth inhibition call in the test with S. aureus RN4220 is “inactive”.

For `CC(=O)c1ccn[nH]1`, the cytotoxicity call in the test on HSkMC (human skeletal muscle cells) and in the test on HepG2 was “inactive” in each case. In addition, in the test on S. aureus RN4220, the growth inhibition call was “inactive”.

As to `C[C@@H]1[C@@H](c2ccccc2)OC(=O)[C@@H]2[C@@H]3C=C[C@]4(O3)[C@H](C(=O)N(Cc3ccccc3)C/C=C\CCC(=O)N1C)N([C@@H](C)CO)C(=O)[C@@H]24`, the cytotoxicity call with HSkMC and in the test with HepG2 was “inactive” in each case. In the test on S. aureus RN4220, the growth inhibition call is “inactive”.
